# The supplement of paper PMC8728848
# The other results are listed elsewhere or left out.
# Columns and labels:
# Assay in all cases: glycan array binding signal (z-score within array); higher = stronger binding
# Settings in all cases: glycan notation: IUPAC condensed, linker removed
# [1] = molecular target: Gal(b1-3)[Neu5Ac(a2-6)]GlcNAc(a1-4)Gal(b1-4)Glc
# How it was run: (§1)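 Glycan array binding is given as a within-array Z-score, which can be read as non-binding when negative. The arrays, 3228 of them, came from the Consortium for Functional Glycomics database and were retained only where the protein sequence was available. Z-scores were averaged across arrays of the same protein sequence at different concentrations or buffers and across linkers.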
# [2] = molecular target: Gal(b1-3)[Neu5Ac(b2-6)]GlcNAc
# How it was run: as §1
# [3] = molecular target: Gal(b1-4)GalNAc(a1-3)[Fuc(a1-2)]Gal(b1-4)GlcNAc
# How it was run: as §1
# [4] = molecular target: Gal(b1-4)GalNAc(b1-3)[Fuc(a1-2)]Gal(b1-4)GlcNAc
# How it was run: as §1
# [5] = molecular target: Gal(b1-4)Glc
# How it was run: as §1
# [6] = molecular target: Gal(b1-4)Glc6S
# How it was run: as §1
# [7] = molecular target: Gal(b1-4)GlcNAc
# How it was run: as §1
# [8] = molecular target: Gal(b1-4)GlcNAc(b1-2)Man(a1-3)[Gal(b1-4)GlcNAc(b1-2)Man(a1-6)]Man(b1-4)GlcNAc(b1-4)GlcNAc
# How it was run: as §1
# [9] = molecular target: Gal(b1-4)GlcNAc(b1-3)Gal(b1-3)GlcNAc
# How it was run: as §1
# [10] = molecular target: Gal(b1-4)GlcNAc(b1-3)Gal(b1-4)Glc
# How it was run: as §1
# [11] = molecular target: Gal(b1-4)GlcNAc(b1-3)Gal(b1-4)GlcNAc
# How it was run: as §1
# [12] = molecular target: Gal(b1-4)GlcNAc(b1-3)Gal(b1-4)GlcNAc(b1-3)Gal(b1-4)GlcNAc
# How it was run: as §1
# [13] = molecular target: Gal(b1-4)GlcNAc(b1-3)Gal(b1-4)[Fuc(a1-3)]GlcNAc(b1-3)Gal(b1-4)[Fuc(a1-3)]GlcNAc
# How it was run: as §1
# [14] = molecular target: Gal(b1-4)GlcNAc(b1-3)GalNAc
# How it was run: as §1
# [15] = molecular target: Gal(b1-4)GlcNAc(b1-3)[Gal(b1-4)GlcNAc(b1-6)]GalNAc
# How it was run: as §1
# [16] = molecular target: Gal(b1-4)GlcNAc(b1-6)GalNAc
# How it was run: as §1
# [17] = molecular target: Gal(b1-4)GlcNAc(b1-6)[Gal(b1-3)]GalNAc
# How it was run: as §1
# [18] = molecular target: Gal(b1-4)GlcNAc(b1-6)[Gal(b1-3)]GlcNAc
# How it was run: as §1
# [19] = molecular target: Gal3S(b1-3)GalNAc
# How it was run: as §1
# [20] = molecular target: Gal3S(b1-3)GlcNAc
# How it was run: as §1
# [21] = molecular target: Gal3S(b1-3)[Fuc(a1-4)]GlcNAc
# How it was run: as §1
# [22] = molecular target: Gal3S(b1-4)Glc
# How it was run: as §1
# [23] = molecular target: Gal3S(b1-4)Glc6S
# How it was run: as §1
# [24] = molecular target: Gal3S(b1-4)GlcNAc
# How it was run: as §1
# [25] = molecular target: Gal3S(b1-4)GlcNAc6S
# How it was run: as §1
# [26] = molecular target: Gal3S6S(b1-4)GlcNAc
# How it was run: as §1
# [27] = molecular target: Gal3S6S(b1-4)GlcNAc6S
# How it was run: as §1
# [28] = molecular target: Gal4S(b1-4)GlcNAc
# How it was run: as §1
# [29] = molecular target: Gal4S6S(b1-4)GlcNAc
# How it was run: as §1
# [30] = molecular target: Gal6S(b1-4)Glc
# How it was run: as §1
# [31] = molecular target: Gal6S(b1-4)Glc6S
# How it was run: as §1
# [32] = molecular target: Gal6S(b1-4)GlcNAc
# How it was run: as §1
# [33] = molecular target: GalNAc(a1-3)Gal
# How it was run: as §1
# [34] = molecular target: GalNAc(a1-3)GalNAc
# How it was run: as §1
# [35] = molecular target: GalNAc(b1-3)Gal(a1-4)Gal(b1-4)GlcNAc
# How it was run: as §1
# [36] = molecular target: GalNAc(b1-4)GlcNAc
# How it was run: as §1
# [37] = molecular target: Glc(a1-4)Glc
# How it was run: as §1
binder,measurement,setting,value
"FBG4 (Homo sapiens), Q96EF6 (protein) MGARLSRRRLPADPSLALDALPPELLVQVLSHVPPRSLVTRCRPVCRAWRDIVDGPTVWLLQLARDRSAEGRALYAVAQRCLPSNEDKEEFPLCALARYCLRAPFGRNLIFNSCGEQGFRGWEVEHGGNGWAIEKNLTPVPGAPSQTCFVTSFEWCSKRQLVDLVMEGVWQELLDSAQIEICVADWWGARENCGCVYQLRVRLLDVYEKEVVKFSASPDPVLQWTERGCRQVSHVFTNFGKGIRYVSFEQYGRDVSSWVGHYGALVTHSSVRVRIRLS",glycan array binding signal (z-score),[1],-0.174
same,glycan array binding signal (z-score),[2],-0.314
same,glycan array binding signal (z-score),[3],-0.462
same,glycan array binding signal (z-score),[4],-0.55
same,glycan array binding signal (z-score),[5],-0.291
same,glycan array binding signal (z-score),[6],0.38
same,glycan array binding signal (z-score),[7],-0.453
same,glycan array binding signal (z-score),[8],0.176
same,glycan array binding signal (z-score),[9],-0.379
same,glycan array binding signal (z-score),[10],-0.379
same,glycan array binding signal (z-score),[11],-0.449
same,glycan array binding signal (z-score),[12],0.007
same,glycan array binding signal (z-score),[13],-0.073
same,glycan array binding signal (z-score),[14],-0.488
same,glycan array binding signal (z-score),[15],-0.438
same,glycan array binding signal (z-score),[16],-0.564
same,glycan array binding signal (z-score),[17],-0.435
same,glycan array binding signal (z-score),[18],-0.377
same,glycan array binding signal (z-score),[19],-0.102
same,glycan array binding signal (z-score),[20],-0.199
same,glycan array binding signal (z-score),[21],0.145
same,glycan array binding signal (z-score),[22],1.18
same,glycan array binding signal (z-score),[23],2.36
same,glycan array binding signal (z-score),[24],0.201
same,glycan array binding signal (z-score),[25],2.01
same,glycan array binding signal (z-score),[26],1.22
same,glycan array binding signal (z-score),[27],6.42
same,glycan array binding signal (z-score),[28],-0.013
same,glycan array binding signal (z-score),[29],1.17
same,glycan array binding signal (z-score),[30],0.71
same,glycan array binding signal (z-score),[31],3.24
same,glycan array binding signal (z-score),[32],0.226
same,glycan array binding signal (z-score),[33],-0.465
same,glycan array binding signal (z-score),[34],-0.52
same,glycan array binding signal (z-score),[35],-0.171
same,glycan array binding signal (z-score),[36],-0.505
same,glycan array binding signal (z-score),[37],-0.363
